# In all, about 44,000 compounds went through this assay and about 340 (0.77%) were called active. Not shown: some 5% with an inconclusive outcome. Calls follow the shape of the dose curve; as a rule, active = well fitted inhibition curve with a large enough effect; inconclusive = small, poorly fitted or top-dose-only effect; inactive = flat fitted curve, though single readings scatter. This is one part of the list.
# Assay: Acumen qHTS Assay for Inhibitors of the mTORC1 Signaling Pathway in MEF (Tsc2-/-, p53-/-) Cells: Sytravon;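 also: plate controls were DMSO for no effect and rapamycin for full effect; nearly all actives have a fitted effect of over 50% in size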
# Conditions: phospho-rpS6 immunofluorescence/PI, 24 h; series mostly up to 38.3 µM; activity change, negative = inhibition: at the top concentration
# Outline: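 Read-out: phospho-S6 Alexa-488 intensity over PI intensity per well, scored as % active cells using thresholds from rapamycin (7.5 nM) and DMSO controls. Tsc2-/-, p53-/- MEFs exposed to compound for 24 h; PI cell count recorded as viability.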
row,Structure (SMILES),"activity change, negative = inhibition"
1,Cc1cccc(N2CCN(S(=O)(=O)c3ccc4c(c3)C(C(C)C)C(=O)N4)CC2)c1C (stereo unspecified),inactive: -14.1%
2,COc1cccc(CN2CCCN(CC(=O)Nc3ccc4c(c3)OCCO4)S2(=O)=O)c1,inactive: 0%
3,COc1cccc(N(Cc2nnc3n2CCCCC3)C(=O)Nc2ccccc2)c1,inactive: -6.86%
4,Cc1oc(-c2ccccc2F)nc1CSCC(=O)N1CCN(c2ccccc2)CC1,inactive: -10%
5,Cc1nc2nc(NC(=O)c3ccc(C(C)(C)C)cc3)[nH]n2c(=O)c1Cl,inactive: -10.3%
6,CCCCOc1ccc(C(=O)NCCc2sc(-c3ccc(OC)c(OC)c3)nc2C)cc1,inactive: -14.6%
7,CCOc1ccc(CNC(=O)c2ccc3c(c2)N(CC)CCS3)cc1,inactive: -0.676%
8,O=C(Nc1cccc(O)c1)c1cc2nc(-c3ccc(Br)cc3)cc(C(F)(F)F)n2n1,inactive: -0.656%
9,COc1ccc(N2CCN(C(=O)CSc3c4c(nc5ccc(Cl)cc35)CCCC4)CC2)cc1,inactive: 1.16%
10,COc1cccc(CCNC(=O)c2cnc3sc(N4CCCCCC4)nn3c2=O)c1,inactive: -5.1%
11,O=C(Nc1ccc2oc(-c3cccnc3)nc2c1)c1ccc(-c2cccc(Cl)c2)o1,inactive: 8.56%
12,COc1ccc(CN(C)c2ccc(-c3nc(-c4ccccc4)no3)cc2[N+](=O)[O-])cc1,inactive: 1.77%
13,COc1ccc(S(=O)(=O)c2c(Nc3c(C)cccc3C)sc(C(=O)c3ccc4c(c3)OCO4)c2N)cc1,inactive: -0.0481%
14,Cc1ccc(-n2nc3c(=O)n(CC(=O)NC(C)C)nc(C)c3c2C)cc1,inactive: -3.65%
15,COc1cc(NC(=O)CC2C(=O)N(c3cccc(C)c3)C(=O)N2Cc2ccco2)cc(OC)c1 (stereo unspecified),inactive: -5.05%
16,CCC(CC)C(=O)Nc1ccc2nc(SCc3ccccc3)sc2c1,inactive: -3.17%
17,COc1ccc2c(CC(=O)Nc3ccc(C)cc3)coc2c1,inactive: -8.34%
18,COc1ccc(NC(=O)CSC2=Nc3ccccc3C3=NC(CC(=O)NCc4ccco4)C(=O)N23)cc1 (stereo unspecified),inactive: -4.63%
19,O=C(Cn1c(-c2cccs2)cc2ccccc21)N1CCN(c2ccccc2F)CC1,inactive: -9.37%
20,O=C(CSc1nnc(-c2ccncc2)n1-c1ccccc1)Nc1ccc(Cl)c(Cl)c1,inactive: -9.88%
21,Clc1ccc(CCNc2nc3ccccc3c3nc(-c4ccccc4)nn23)cc1,inactive: 0.12%
22,CCN(C(=O)CSc1nnc(-c2cc(OC)c(OC)c(OC)c2)o1)c1ccccc1,inactive: 3.44%
23,Cc1ccc(C(=O)N(Cc2ccco2)Cc2ccco2)cc1,inactive: -5.26%
24,CCOc1ccc(NC(=O)Cn2cc(C(=O)c3cccs3)c3ccccc32)cc1,inactive: 3.37%

row,Structure (SMILES),"activity change, negative = inhibition"
1,CCOc1cccc(CC(=O)NCc2ccc3c(c2)CCN3C(=O)c2ccc(F)cc2)c1OCC,inactive: -3.26%
2,O=C(CSc1nc2ncccc2[nH]1)Nc1cc(F)ccc1F,inactive: 0.61%
3,O=C(CCn1c(=O)c2cccn2c2cccnc21)NCc1ccccc1Cl,inactive: -6.19%
4,O=C(NCC(c1cccnc1)N1CCN(c2ccccc2F)CC1)C(=O)Nc1ccc(F)cc1F (stereo unspecified),inactive: 5.13%
5,COc1cccc(N2CCN(C(=O)C3CCCN(S(=O)(=O)c4cccc5nsnc45)C3)CC2)c1 (stereo unspecified),inactive: -0.421%
6,Cc1ccc(CNC(=O)CCc2c(C)nn(-c3ccc(N4CCOCC4)nn3)c2C)cc1,inactive: 4.24%
7,CCOc1ccc(C(=O)c2cn(CC(=O)Nc3ccc4c(c3)OCO4)c3ccc(OC)cc3c2=O)cc1,inactive: 0.891%
8,CCOc1ccc2c(c1)c(=O)c(C(=O)c1ccc(CC)cc1)cn2CC(=O)Nc1ccccc1OC,inactive: 1.67%
9,COc1ccc(OC)c(NC(=O)Cn2c(=O)c3cccn3c3ccccc32)c1,inactive: 9.3%
10,CCn1c(=O)n(-c2ccc3c(c2)OCO3)c2nc(-c3ccc(C(C)C)cc3)nc(C(N)=O)c21,inactive: 1.48%
11,O=C(Nc1cccc(Cl)c1)C1CCCN(c2nn3cc(-c4ccc(F)cc4)nc3s2)C1 (stereo unspecified),inactive: 1.85%
12,Cc1ccc(Cl)cc1NC(=O)CSc1nc2ccccc2c2nc(-c3ccccc3)nn12,inactive: 2.54%
13,CCOC(=O)C1CCN(C(=O)c2nn(-c3ccc(OC)c(Cl)c3)c(=O)c3c2c2ccccc2n3C)CC1,inactive: -4.28%
14,CCOc1ccc(C(=O)Nc2cc(-c3nc4cc(OC)ccc4o3)ccc2C)cc1[N+](=O)[O-],inactive: -2.63%
15,Cc1ccc(S(=O)(=O)c2cn(CC(=O)Nc3cccc(Cl)c3)c3ccccc3c2=O)cc1,inactive: -13.5%
16,O=C(Cn1cc(C(=O)C(F)(F)F)c2ccccc21)N1CCCCCC1,inactive: 1.31%
17,CC1(C)N=C(SCc2ccc(F)cc2)c2ccccc2N1,inactive: -8.67%
18,O=C(COc1ccc2ccccc2c1)NC1CC(=O)N(c2ccc(F)cc2)C1 (stereo unspecified),inactive: -2.43%
19,CCOc1ccccc1NC1(c2ccccc2)C(=O)c2ccccc2C1=O,inactive: 1.83%
20,Cc1ccccc1CN1c2ccccc2-c2nc(SCC(=O)c3ccccc3)ncc2S1(=O)=O,inactive: -4.54%
21,CCNC(=O)c1ccc2c(c1)nc1n2CCCCC1,inactive: 1.53%
22,Cc1ccccc1OCc1nc2c3cnn(-c4cccc(F)c4)c3ncn2n1,inactive: -3.9%
23,Cc1c(CNC2CCCCC2)c(C(=O)O)c(C)n1Cc1ccccc1F,inactive: 0.859%
24,CCNC(=O)c1c(NC(=O)Cc2coc3ccc(CC)cc23)sc2c1CCCC2,inactive: -4.46%

row,Structure (SMILES),"activity change, negative = inhibition"
1,CC(=O)N1CCCc2cc(S(=O)(=O)N3CCN(c4ccccc4F)CC3)ccc21,inactive: -9.13%
2,COc1cccc(C2C(C(=O)Nc3ccc(Cl)cc3)=C(C)Nc3nc4ccccc4n32)c1OC (stereo unspecified),inactive: 1.92%
3,Cc1oc2ncn(CC(C)C)c(=O)c2c1C(=O)N(CCN(C)C)Cc1ccccc1,inactive: 0%
4,CCCCNC(=O)c1ccc2c(c1)N(CC)C(=O)c1ccccc1S2,inactive: 0%
5,Cc1ccc2c(c1)N(C(=O)N1CCC(C(=O)NCc3ccccc3C)CC1)CC(C)O2 (stereo unspecified),inactive: -5.52%
6,CCCCNC(=O)c1c(-c2ccccc2)c(-c2ccccc2)nn(C)c1=O,inactive: 1.93%
7,CC(=O)N1c2ccc(S(=O)(=O)NCc3ccccc3Cl)cc2CC1C (stereo unspecified),inactive: 0.0113%
8,CCCc1nnc(NC(=O)c2cc(=O)c3ccccc3o2)s1,inactive: 2.78%
9,COc1ccc(N2CCN(C(=O)C3CCCN(C(=O)c4cc5sccc5n4C)C3)CC2)cc1 (stereo unspecified),inactive: 2.86%
10,CCOC(=O)c1c(C)n(-c2ccccc2)c2ccc(OC(=O)COc3ccccc3)cc12,inactive: -2.66%
11,CCCCNC(=O)CN1C(=O)c2cccnc2Sc2ccccc21,inactive: -5.95%
12,CC1=C(C(=O)Nc2cccnc2)C(c2cccc(F)c2)n2nc(SCc3ccccc3F)nc2N1 (stereo unspecified),inactive: 5.81%
13,COc1ccc(C)cc1NC(=O)c1cc(S(=O)(=O)N2CCOCC2)cn1C,inactive: 12.9%
14,O=C(CSc1nc(=O)[nH]c2c1CCCC2)NCc1ccccc1Cl,inactive: -1.67%
15,O=C(Nc1cccc(Cl)c1Cl)c1ccc2c(c1)N(Cc1cccc(Cl)c1)C(=O)c1ccccc1S2=O (stereo unspecified),inactive: 0.336%
16,COc1cc2[nH]c(=O)n(Cc3ccc(C(=O)N4CCN(c5ccc(Cl)cc5)CC4)cc3)c(=O)c2cc1OC,inactive: 3.67%
17,Cc1ccc(NC(=O)c2sc3ncn(Cc4cccc(F)c4)c(=O)c3c2C)c(Br)c1,inactive: -0.634%
18,Cc1ccc(C)c(NC(=O)Cn2nc(C)c3nn(-c4ccc(Cl)cc4)c(C)c3c2=O)c1,inactive: 8.26%
19,Cc1ccc(N(Cc2cccs2)C(=O)C(C)Oc2ccc(Cl)c(C)c2)cc1 (stereo unspecified),inactive: -14%
20,COc1ccc(N2CCN(c3ccc(-c4nc(-c5ccccc5)no4)cc3[N+](=O)[O-])CC2)cc1,inactive: 2.47%
21,COc1ccc(CNC(=O)CCS(=O)(=O)c2cc(Br)cc3c2N(C(C)=O)C(C)C3)cc1 (stereo unspecified),inactive: -6.62%
22,CCOc1ccc(CCNC(=O)c2cc3c(=O)n(CC)c4ccccc4c3s2)cc1OCC,inactive: -13.4%
23,CCc1cccc(NC(=O)CSc2nncn3c2cc2sccc23)c1,inactive: -0.033%
24,CCN(Cc1ccccc1)C(=O)c1cc(-c2ccccc2)n[nH]1,inactive: -7.07%

row,Structure (SMILES),"activity change, negative = inhibition"
1,Cc1ccc(Cl)cc1N1CCN(C(=O)CN2C(=O)COc3ccc(S(=O)(=O)N4CCCCCC4)cc32)CC1,inactive: -13.7%
2,COc1ccc(S(=O)(=O)NCCSc2nnnn2-c2ccccc2)cc1OC,inactive: -4.53%
3,Cc1c(C)n(Cc2ccccc2)c2ccc(C(=O)N3CCN(c4ccc(F)cc4)CC3)cc12,inactive: 4.43%
4,CC(C)CCNC(=O)c1ccc2c(c1)NC(=O)C(C(C)C)N2 (stereo unspecified),inactive: -0.538%
5,Cc1oc2ccc(O)c(CN3CCOCC3)c2c1C(=O)Nc1cccc(C(F)(F)F)c1,inactive: -12.7%
6,Cn1cnc(S(=O)(=O)N2CCCC(C(=O)NCc3ccc(Cl)cc3)C2)c1 (stereo unspecified),inactive: 0%
7,CCN(CC)S(=O)(=O)c1ccc2c(c1)N(CC(=O)N1CCN(c3ccc(OC)cc3)CC1)C(=O)CO2,inactive: -10.8%
8,Cc1ccccc1Nc1c(-c2cccc(Cl)c2)nc2ncccn12,inactive: -1.45%
9,Cc1ccc(-c2onc(C)c2C)cc1S(=O)(=O)N1CCOc2ccc(Cl)cc21,inactive: 0%
10,COc1ccc(-n2c(SCC(N)=O)nc3c(oc4ccccc43)c2=O)cc1,inactive: -0.0565%
11,CC(=O)N1CCc2c(sc3c2c(=O)n(Cc2ccccc2)c(=O)n3Cc2ccccc2F)C1,inactive: -10.6%
12,O=C(Cc1cccs1)Nc1c(C(=O)Nc2ccc(F)cc2)oc2ccccc12,inactive: -12.6%
13,CC(C)CN1CCc2nc(Nc3ccc(F)cc3F)ncc2C1,inactive: 0%
14,COc1cc(/C=C(\C#N)c2nc3ccccc3[nH]2)ccc1OCc1ccccc1F,inactive: 3.18%
15,COc1ccc(CCC(=O)NCc2ccc3c(c2)CCN3C(=O)c2ccccc2)cc1,inactive: -5.57%
16,CCC(Sc1nc(-c2ccc(F)cc2)nc2c1Cc1c(CO)cnc(C)c1O2)C(=O)Nc1ccc(F)cc1 (stereo unspecified),inactive: 0.701%
17,COc1c(Cl)cc(C(=O)N(Cc2ccccc2F)C2CCS(=O)(=O)C2)cc1Cl (stereo unspecified),inactive: 0.309%
18,CCS(=O)(=O)N1CCc2cc(C(=O)N3CCN(c4ccccc4OC)CC3)ccc21,inactive: 2.56%
19,CC(C)(C)OC(=O)N1CCc2nc(N3CCN(c4ncccn4)CC3)ncc2C1,inactive: 2.97%
20,Cn1c(=O)c2c(nc(SCC(=O)Nc3ccc(F)cc3)n2Cc2ccccc2F)n(C)c1=O,inactive: -0.115%
21,COc1ccc(C(CNC(=O)c2ccc(F)cc2)N2CCCC2)cc1 (stereo unspecified),inactive: -4.97%
22,Cc1cc(C)cc(NC(=O)N2CCC(CN3CCCCCC3)CC2)c1,inactive: 0.667%
23,CCOc1ccc2nc(NC(=O)c3nc(SCc4ccccc4C)ncc3Cl)sc2c1,inactive: 1.37%
24,CCCSc1ncc(Cl)c(C(=O)Nc2c(C(=O)c3ccc(C)cc3)oc3ccccc23)n1,inactive: -1.64%
